Results as given in publication PMC9911399, “Two distinct binding modes provide the RNA-binding protein RbFox with extraordinary sequence specificity”.
Numbering of substitutions follows the chain as printed; changes in the protein carry UniProt numbers. Some of the results follow.

T1: RBFOX1 RRM (Homo sapiens, UniProt Q9NWB1 109-208)
T1 sequence: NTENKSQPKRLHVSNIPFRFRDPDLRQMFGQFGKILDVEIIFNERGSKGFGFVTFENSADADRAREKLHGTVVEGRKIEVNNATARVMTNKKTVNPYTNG

B1: GAUUUGA (DNA:RNA)
RNA: GGGAGACCGGAAUUCAGAUUGUCCGAUUUGAUUAAAUCCCGUCGUAGCCACCA
DNA 1: CAATCTGAATTCCGGTCTCCC
DNA 2: TGGTGGCTACGACGGGATT
B2: GUAAAGU (DNA:RNA)
RNA: B1 RNA with A26U, U27A, U28A, U29A, A31U
DNA 1: CAATCTGAATTCCGGTCTCCC
DNA 2: TGGTGGCTACGACGGGATT
B3: GCCAGUU (DNA:RNA)
RNA: B1 RNA with A26C, U27C, U28A, U29G, G30U, A31U
DNA 1: CAATCTGAATTCCGGTCTCCC
DNA 2: TGGTGGCTACGACGGGATT
B4: CAGUCAA (DNA:RNA)
RNA: B1 RNA with G25C, U27G, U29C, G30A
DNA 1: CAATCTGAATTCCGGTCTCCC
DNA 2: TGGTGGCTACGACGGGATT
B5: AGUAUUC (DNA:RNA)
RNA: B1 RNA with G25A, A26G, U28A, G30U, A31C
DNA 1: CAATCTGAATTCCGGTCTCCC
DNA 2: TGGTGGCTACGACGGGATT
B6: CAAACCA (DNA:RNA)
RNA: B1 RNA with G25C, U27A, U28A, U29C, G30C
DNA 1: CAATCTGAATTCCGGTCTCCC
DNA 2: TGGTGGCTACGACGGGATT
B7: UCAGUUC (DNA:RNA)
RNA: B1 RNA with G25U, A26C, U27A, U28G, G30U, A31C
DNA 1: CAATCTGAATTCCGGTCTCCC
DNA 2: TGGTGGCTACGACGGGATT
B8: UAAAUCU (DNA:RNA)
RNA: B1 RNA with G25U, U27A, U28A, G30C, A31U
DNA 1: CAATCTGAATTCCGGTCTCCC
DNA 2: TGGTGGCTACGACGGGATT
B9: GCUUCAC (DNA:RNA)
RNA: B1 RNA with A26C, U29C, G30A, A31C
DNA 1: CAATCTGAATTCCGGTCTCCC
DNA 2: TGGTGGCTACGACGGGATT
B10: CAACACG (DNA:RNA)
RNA: B1 RNA with G25C, U27A, U28C, U29A, G30C, A31G
DNA 1: CAATCTGAATTCCGGTCTCCC
DNA 2: TGGTGGCTACGACGGGATT
B11: UGUUCGA (DNA:RNA)
RNA: B1 RNA with G25U, A26G, U29C
DNA 1: CAATCTGAATTCCGGTCTCCC
DNA 2: TGGTGGCTACGACGGGATT
B12: GUUUAAU (DNA:RNA)
RNA: B1 RNA with A26U, U29A, G30A, A31U
DNA 1: CAATCTGAATTCCGGTCTCCC
DNA 2: TGGTGGCTACGACGGGATT
B13: AGUAUGA (DNA:RNA)
RNA: B1 RNA with G25A, A26G, U28A
DNA 1: CAATCTGAATTCCGGTCTCCC
DNA 2: TGGTGGCTACGACGGGATT
B14: GUUCGAU (DNA:RNA)
RNA: B1 RNA with A26U, U28C, U29G, G30A, A31U
DNA 1: CAATCTGAATTCCGGTCTCCC
DNA 2: TGGTGGCTACGACGGGATT
B15: UGAUGCC (DNA:RNA)
RNA: B1 RNA with G25U, A26G, U27A, U29G, G30C, A31C
DNA 1: CAATCTGAATTCCGGTCTCCC
DNA 2: TGGTGGCTACGACGGGATT
B16: CGUCCUA (DNA:RNA)
RNA: B1 RNA with G25C, A26G, U28C, U29C, G30U
DNA 1: CAATCTGAATTCCGGTCTCCC
DNA 2: TGGTGGCTACGACGGGATT
B17: CGUCGGA (DNA:RNA)
RNA: B1 RNA with G25C, A26G, U28C, U29G
DNA 1: CAATCTGAATTCCGGTCTCCC
DNA 2: TGGTGGCTACGACGGGATT
B18: GAUCGAU (DNA:RNA)
RNA: B1 RNA with U28C, U29G, G30A, A31U
DNA 1: CAATCTGAATTCCGGTCTCCC
DNA 2: TGGTGGCTACGACGGGATT
B19: AUGCGGU (DNA:RNA)
RNA: B1 RNA with G25A, A26U, U27G, U28C, U29G, A31U
DNA 1: CAATCTGAATTCCGGTCTCCC
DNA 2: TGGTGGCTACGACGGGATT
B20: UUACACA (DNA:RNA)
RNA: B1 RNA with G25U, A26U, U27A, U28C, U29A, G30C
DNA 1: CAATCTGAATTCCGGTCTCCC
DNA 2: TGGTGGCTACGACGGGATT

Target: T1, RBFOX1 RRM
Experiment: EMSA; HiTS-Eq, 1 nM pool, 10 min; buffer printed only for the single-RNA assays: 10 mM Tris pH 7.5, 150 mM NaCl, 3.4 mM EDTA, 0.001% NP-40, 30 C
Settings: tags: His6 N-terminal (pET28a); label: 5' 32P
In short: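 A pool of RNA with 7 randomized nucleotides, 5′-radiolabelled and with DNA-annealed flanks, was equilibrated at 1 nM for 10 min in 50 µL with purified RbFox RRM, wild type or mutant, across increasing protein concentrations. Free RNA was separated by 8% native PAGE, excised, reverse-transcribed, barcoded by PCR and sequenced. Relative association constants were obtained from read-count changes of each RNA species versus the control reaction and normalised to the cognate motif.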

Binder | binding signal
B1 | 0.0237 KA relative to UGCAUGU
B2 | 0.00819 KA relative to UGCAUGU
B3 | 0.0144 KA relative to UGCAUGU
B4 | 0.00279 KA relative to UGCAUGU
B5 | 0.0101 KA relative to UGCAUGU
B6 | 0.00218 KA relative to UGCAUGU
B7 | 0.0122 KA relative to UGCAUGU
B8 | 0.00488 KA relative to UGCAUGU
B9 | 0.0102 KA relative to UGCAUGU
B10 | 0.00419 KA relative to UGCAUGU
B11 | 0.0305 KA relative to UGCAUGU
B12 | 0.00608 KA relative to UGCAUGU
B13 | 0.0137 KA relative to UGCAUGU
B14 | 0.0194 KA relative to UGCAUGU
B15 | 0.0121 KA relative to UGCAUGU
B16 | 0.00311 KA relative to UGCAUGU
B17 | 0.00462 KA relative to UGCAUGU
B18 | 0.0183 KA relative to UGCAUGU
B19 | 0.012 KA relative to UGCAUGU
B20 | 0.00244 KA relative to UGCAUGU
